Screen size: about 220,000 compounds; about 16,000 (7.3%) were called active. This list was built around the results that the source calls inconclusive (neither active nor inactive); the mix of calls is not that of the screen. Calls come from the whole dose curve; as a rule, active = well fitted inhibition curve with a large enough effect (not every such curve was filed as active); inconclusive = small, poorly fitted or top-dose-only effect, or another doubt; inactive = no such curve, though single readings can be large or run the other way. No potency is given beside an inconclusive call; the fits are too rough.
Biological target: Aldehyde dehydrogenase 1A1 (Homo sapiens) (UniProt P00352)
Assay: qHTS Assay for Inhibitors of Aldehyde Dehydrogenase 1 (ALDH1A1);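 for activity, negative = inhibition: plate controls were no enzyme wells and a reference inhibitor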
Settings: Purified ALDH1A1, NADH fluorescence, propionaldehyde substrate; series mostly up to 75.3 µM; activity, negative = inhibition: at the top concentration
Potency is the fitted concentration of half-maximal effect; tags give direction and shape of the fitted curve.

Chain of UniProt P00352 (P00352 whole entry, looked up): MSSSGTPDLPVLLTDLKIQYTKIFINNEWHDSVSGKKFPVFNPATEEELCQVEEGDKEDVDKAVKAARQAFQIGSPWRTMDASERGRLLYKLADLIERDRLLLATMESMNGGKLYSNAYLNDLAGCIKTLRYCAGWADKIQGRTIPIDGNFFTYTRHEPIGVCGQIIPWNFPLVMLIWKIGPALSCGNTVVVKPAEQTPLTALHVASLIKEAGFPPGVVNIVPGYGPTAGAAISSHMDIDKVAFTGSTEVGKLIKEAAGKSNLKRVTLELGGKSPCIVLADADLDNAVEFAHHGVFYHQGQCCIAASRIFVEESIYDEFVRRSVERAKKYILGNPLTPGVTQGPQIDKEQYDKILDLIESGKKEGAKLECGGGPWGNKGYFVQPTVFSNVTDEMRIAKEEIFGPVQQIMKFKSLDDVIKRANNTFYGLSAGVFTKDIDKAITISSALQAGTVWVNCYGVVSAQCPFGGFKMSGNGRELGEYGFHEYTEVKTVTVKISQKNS

Compound	activity, negative = inhibition	Potency
CC(=Nc1ccccc1C)C1=C(O)CSC1=O	inactive: -1.67%	–
Cc1ccccc1N=Nc1c(C)[nH]n(C(N)=S)c1=O	–	active: 20 µM
S=C(NC1CCCCC1)N1CCN(C2CCCCC2)CC1	inactive: -8.12%	–
CCOc1ccc(-c2cc(C(=O)O)c3ccccc3n2)cc1	–	inconclusive [inhibitor, partial curve]
O=S(=O)(c1ccc(NC(=S)Nc2ccc3c(c2)OCO3)cc1)N1CCOCC1	–	active: 22.4 µM
O=c1c2c(ncn2C2CCCC2)n(Cc2ccccc2)c(=O)n1CCOc1ccccc1	inactive: 10.7%	–
CCOC(=O)CCC(NC(=O)CCCC(=O)NC(CCC(=O)OCC)C(=O)OCC)C(=O)OCC (stereo unspecified)	inactive: 7.82%	–
NC(=O)c1c(NC(NC(=O)c2ccco2)(C(F)(F)F)C(F)(F)F)sc2c1CCCC2	–	active: 31.6 µM
CCOc1cc2nc(-c3ccc(OC)c(OC)c3)nc(NCCCN3CCOCC3)c2cc1OC	–	inconclusive [inhibitor, single point]
Cc1noc(C)c1-c1ccc2ncnc(NCc3cccs3)c2c1	–	inconclusive [inhibitor, partial curve]
Cc1cc(C)cc(Oc2ccccc2/C=C\C(=O)O)c1	inactive: 3.28%	–
CCCCn1c(SC(C)C(N)=O)nc2cc(C(=O)OC)ccc2c1=O (stereo unspecified)	–	active: 0.597 µM
O=C(/C=C/c1ccc(S(=O)(=O)N2CCOCC2)cc1)NCc1ccccc1	–	inconclusive [inhibitor, single point]
CCOC(=O)c1c(NC(=O)CSc2ncn[nH]2)sc(C)c1C	–	active: 25.1 µM
O=C1N(Cc2cccnc2)C[C@@H]2C[C@@H](c3ccc(C(F)(F)F)cc3)N3CCC[C@@]123	inactive: -11.4%	–
COc1ccc(CNC(=O)COC(=O)/C=C/c2ccco2)cc1	–	active: 25.1 µM
O=C(CNC(=O)Cc1ccccc1)NCC(=O)OCC(=O)c1cccc2ccccc12	–	inconclusive [inhibitor, single point]
CCOC(=O)c1ccc(NC(=O)C(=O)NCc2ccccn2)cc1	–	inconclusive [inhibitor, single point]
CN(C)S(=O)(=O)c1cccc(C(=O)N(Cc2ccc(F)cc2)Cc2ccco2)c1	–	active: 25.1 µM
CCN(CC(=O)Nc1ccc(OC)cc1)CC(=O)Nc1ccc(Br)cc1F	–	inconclusive [inhibitor, single point]
COc1ccc(-n2c(Cc3cccn3C)nnc2SCC(=O)Nc2cc(C)cc(C)c2)cc1	–	inconclusive [inhibitor, single point]
CN(C)c1ccnc(Oc2ccc(Cl)cc2)c1C#N	–	active: 25.1 µM
O=C(Nc1nnc(-c2ccccc2)s1)c1cc(S(=O)(=O)N2CCOCC2)c(Cl)cc1Cl	inactive: 6.48%	–
COc1ccc(-c2nc3c(c4c2C[C@H](c2ccccc2)OC4)CN(C(=O)C2CC2)CC3)c(C)c1	–	active: 0.398 µM
CCOC(=O)CN1C(=O)N[C@@H](c2ccco2)C(C(=O)OC)=C1C	inactive: -9.1% [at 13.5 µM]	–
COC(=O)N1CCC2(CC1)CN(C(=O)Nc1cccc(F)c1)C2	inactive: 24.2%	–

Compound	activity, negative = inhibition	Potency
c1ccc(-c2ccnc3ncnn23)nc1	–	inconclusive [inhibitor, single point]
N#Cc1ccccc1Cn1c(=O)n(Cc2ccc(C(=O)NCc3ccco3)cc2)c(=O)c2ccccc21	–	inconclusive [inhibitor, single point]
O=C(C1=C(c2ccccc2)C(=O)c2ccccc2C1=O)c1ccccc1	–	inconclusive [inhibitor, partial curve]
Cc1cccn2c(=O)c(C=Nc3ccccc3)c(NCCO)nc12	–	inconclusive [inhibitor, single point]
COc1ccc(C(=O)N/N=C(\Cc2ncc[nH]2)c2ccccc2)cc1	–	inconclusive [inhibitor, single point]
Cc1c(C(=O)C(=O)N2CC=C(c3ccccc3)CC2)c2ccccc2n1C	inactive: -2.55%	–
Cc1cccc(OCC(=O)Nc2ccccc2-c2ccccc2)c1	–	inconclusive [inhibitor, single point]
Cc1cc(C(=O)N/N=C/c2c[nH]c3ccccc23)cs1	–	inconclusive [inhibitor, single point]
CN1CCN(C(=S)c2cn(CCOc3ccccc3)c3ccccc23)CC1	–	inconclusive [inhibitor, single point]
COc1cc([C@@H]2c3cc4c(cc3C(OC3OC5COC(C)OC5C(O)C3O)C3COC(=O)[C@@H]32)OCO4)cc(OC)c1O (stereo partly specified)	inactive: 3.54%	–
COc1cccc(-c2nnc(SCC3CNC(=O)O3)n2-c2ccc(Cl)cc2)c1 (stereo unspecified)	–	active: 0.631 µM
COc1ccc(C2NC(=S)NC(O)(C(F)(F)F)C2C(=O)c2cccs2)cc1 (stereo unspecified)	–	active: 10 µM
COc1ccccc1C/C(N)=N/OC(=O)/C=C/c1ccccc1	inactive: -2.58%	–
CCOc1ccc(N=c2oc3cc(O)ccc3cc2C(=O)NCC2CCCO2)cc1 (stereo unspecified)	–	inconclusive [inhibitor, single point]
Cc1ccc(NC(=S)NC(NC(=O)N(C)C)C(Cl)(Cl)Cl)cc1 (stereo unspecified)	–	inconclusive [inhibitor, single point]
Cc1cc(=O)[nH]c(SCC(=O)c2ccccc2)c1C#N	–	active: 17.8 µM
Cc1cc(=O)oc2cc(OC(=O)c3ccccc3)ccc12	–	inconclusive [inhibitor, full curve]
CC(C)(C)NC(=O)NC(=O)CN1CCN(c2ncc(C(F)(F)F)cc2Cl)CC1	–	active: 28.2 µM
CCOc1ccc(N(CC(=O)NCC2CCCO2)S(=O)(=O)c2ccc(OC)c(OC)c2)cc1 (stereo unspecified)	–	inconclusive [inhibitor, partial curve]
CCc1ccc(/C=N/NC(=O)c2cc(C)on2)s1	inactive: -2.58%	–
O=C1CC(N2CCCCCC2)C(=O)N1c1ccc(F)cc1 (stereo unspecified)	–	active: 12.6 µM
CCOC(=O)CCc1c(C)c2ccc(OCC)c(C)c2oc1=O	–	inconclusive [inhibitor, partial curve]
CC(=O)c1cccc(NC(=S)NCc2ccco2)c1	inactive: -7.98%	–
C/C(=N\NC(=O)c1nn(C)c(C)c1Br)c1cccc(NC(=O)c2ccoc2C)c1	–	inconclusive [inhibitor, single point]
Cc1ccc(-n2c(-c3cc(C)n(C)n3)n[nH]c2=S)cc1	inactive: 2.25%	–
Cc1ccc(-c2cc(-c3ccccc3)c3c(N)c(S(C)(=O)=O)sc3n2)cc1	–	inconclusive [inhibitor, partial curve]

Compound	activity, negative = inhibition	Potency
Cn1nnnc1SC1CC(=O)N(c2ccccc2)C1=O (stereo unspecified)	–	active: 1.58 µM
COc1cc(C(O)P(=O)(OCC(C)C)OCC(C)C)cc(OC)c1OC (stereo unspecified)	inactive: 4.75%	–
c1ccc(-c2ccc3c(c2)c2c4n3CCN=C4CCC2)cc1	inactive: -14.6%	–
O=C1NN(c2ccccc2)C(=O)/C1=C/c1ccc(-c2ccc(Cl)c(C(=O)O)c2)o1	–	active: 12.6 µM
COc1ccccc1CNC(=O)CS(=O)Cc1nc(-c2ccccc2C)oc1C (stereo unspecified)	–	inconclusive [inhibitor, single point]
COc1cc(OC)c2c(c1)OC(=O)CC2c1cc(OC)c(OC)c(OC)c1 (stereo unspecified)	–	inconclusive [inhibitor, single point]
O=C(N/N=C/c1ccccn1)c1ccc(NC(=O)c2cccc([N+](=O)[O-])c2)cc1	–	inconclusive [inhibitor, partial curve]
CCSc1nnc(C)n1-c1ccc(C(=O)O)cc1	–	inconclusive [inhibitor, single point]
COc1ccc(-n2c3c(cc(C(=O)NNc4ccccc4)c2=O)C(=O)CC(C)(C)C3)cc1	–	inconclusive [inhibitor, partial curve]
Clc1ccc(C2[C@H]3CN(Cc4ccc(-c5ccccc5)cc4)[C@H](c4ccccc4)C34CC2(c2ccccc2)C4)cn1 (stereo partly specified)	–	inconclusive [inhibitor, single point]
Cc1ccc(N2C(=O)[C@@H]3[C@H](C2=O)C2c4ccccc4C=CN2[C@@H]3C(=O)c2ccco2)c(C)c1 (stereo partly specified)	–	active: 7.94 µM
O=[N+]([O-])c1ccc2c(c1)C(O)n1nc(-c3ccc(Cl)cc3Cl)nc1S2 (stereo unspecified)	inactive: -10.3%	–
O=c1cc(O)c2ccc(O)cc2o1	–	inconclusive [inhibitor, partial curve]
COc1ccc(S(=O)(=O)NCC2CCCN(CC(C)(C)C)C2)cc1 (stereo unspecified)	–	active: 20 µM
O=C(O)CC/C(=N\Nc1ccc([N+](=O)[O-])cc1)c1ccccc1	–	inconclusive [inhibitor, single point]
COc1ccc(C(=O)Nc2cccc(OC)c2)cc1	–	inconclusive [inhibitor, single point]
Cc1cc2ncc(S(=O)(=O)c3ccccc3)c(N)n2n1	inactive: 8.9%	–
COCCn1c(SCC(=O)N2CCCc3ccccc32)nnc1-c1ccco1	inactive: -1.54%	–
COc1ccc(NC(=O)CCC(=O)NCCO)cc1	inactive: -1.27%	–
CC(C)(C)OC(=O)N/N=C/c1cccc([N+](=O)[O-])c1	inactive: -14.6%	–
COc1ccc(/C=N/NC(=O)c2ccncc2)cc1[N+](=O)[O-]	–	inconclusive [inhibitor, single point]
CSC1=C(C#N)C(C)C2=C(CC(C)(C)CC2=O)N1 (stereo unspecified)	inactive: 1.67%	–
O=C(Nc1ccc(CCC(=O)N2CCCC2)cc1)c1ncn[nH]1	inactive: 8.86%	–
CC1=NN(c2ccccc2)C(=O)C1C(=O)c1cc([N+](=O)[O-])cc([N+](=O)[O-])c1 (stereo unspecified)	–	inconclusive [inhibitor, single point]
